Results are given in words; binding and its absence hold for the method and conditions named. Binding seen in cells or lysates may run through a third protein. Some results given as binding are weak or reduced against the parent protein; the word gives no strength. For part of these data: Sequences can lack the tags named with a protein.

By UniProt entry, the sequences of proteins in these tests, tags left out. Where a name states a change or a piece, a line headed by the entry shows the natural chain unless it says otherwise.
UniProt Q15544: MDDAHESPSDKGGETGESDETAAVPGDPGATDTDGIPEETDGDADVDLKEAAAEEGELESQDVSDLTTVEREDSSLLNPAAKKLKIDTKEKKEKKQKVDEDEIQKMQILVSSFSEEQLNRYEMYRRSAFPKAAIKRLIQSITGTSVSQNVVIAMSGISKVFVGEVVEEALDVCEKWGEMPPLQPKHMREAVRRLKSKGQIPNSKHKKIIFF

The text below walks through data of paper PMC4359380.

In assay [1] the target is T1, HNF4A (expressed in HEK cells) (UniProt P41235).
T1 sequence: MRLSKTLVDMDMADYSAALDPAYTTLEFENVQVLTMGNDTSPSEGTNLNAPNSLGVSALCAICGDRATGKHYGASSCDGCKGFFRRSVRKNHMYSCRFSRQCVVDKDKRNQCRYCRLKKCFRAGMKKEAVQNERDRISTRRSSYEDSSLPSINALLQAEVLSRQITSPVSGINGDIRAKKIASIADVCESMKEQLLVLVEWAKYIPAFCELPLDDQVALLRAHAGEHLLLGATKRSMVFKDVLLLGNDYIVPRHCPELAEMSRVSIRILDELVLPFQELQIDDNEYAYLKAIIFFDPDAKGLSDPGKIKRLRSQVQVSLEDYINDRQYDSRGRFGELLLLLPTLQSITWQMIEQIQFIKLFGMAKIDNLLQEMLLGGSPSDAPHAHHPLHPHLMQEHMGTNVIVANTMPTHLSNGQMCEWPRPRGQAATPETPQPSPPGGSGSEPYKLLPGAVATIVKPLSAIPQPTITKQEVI
In words: co-IP; HEK cells transfected with combinations of expression vectors; extracts precipitated with anti-HNF4A antibodies; Western blot.

The target in assay [2] is T2, TAF4(832–966)–6XHIS-tagged TAF12 heterodimer (human) (UniProt O00268+Q16514).
T2 sequence 1: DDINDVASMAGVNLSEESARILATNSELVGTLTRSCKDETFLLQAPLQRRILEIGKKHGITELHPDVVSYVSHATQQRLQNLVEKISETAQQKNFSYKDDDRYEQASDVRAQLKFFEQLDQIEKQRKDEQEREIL
T2 sequence 2: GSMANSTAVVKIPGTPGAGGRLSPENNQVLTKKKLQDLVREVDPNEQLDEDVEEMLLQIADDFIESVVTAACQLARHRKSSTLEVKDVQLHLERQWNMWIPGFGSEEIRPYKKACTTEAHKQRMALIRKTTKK
In words: pull-down; co-expression in E. coli BL21; supernatant of sonicated cells (10 mM Tris-HCl pH 8.0 and 50, 200 or 400 mM NaCl) on TALON cobalt resin, 2 h, 4°C; retained proteins by SDS-PAGE and Coomassie staining; His tag on TAF4–TAF12.

Assay [3] concerns the target T3, 6HIS-tagged TAF4(805–1083)–TAF12(29–161) heterodimer (human) (UniProt O00268+Q16514).
T3 sequence 1: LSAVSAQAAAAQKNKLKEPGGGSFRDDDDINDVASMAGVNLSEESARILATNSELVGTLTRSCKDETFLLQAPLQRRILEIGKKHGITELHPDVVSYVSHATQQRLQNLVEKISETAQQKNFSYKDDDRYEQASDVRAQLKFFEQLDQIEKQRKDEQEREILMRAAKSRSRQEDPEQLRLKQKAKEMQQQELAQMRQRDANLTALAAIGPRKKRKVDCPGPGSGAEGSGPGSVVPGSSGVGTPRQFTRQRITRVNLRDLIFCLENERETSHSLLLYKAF
T3 sequence 2: T2 sequence 2
The assay is described as above.

Assay [4] deals with 6XHIS-tagged TAF12 (29–161) (human) (UniProt Q16514). The description is as above.

Regarding “TAF11–TAF13 histone fold pair (from UniProt Q15544 1-211; Q15543 1-124) (complex)”, the binding entry in assay [1] is given as “no binding”.

With “TAF4–TAF12 heterodimer (full-length TAF4 with TAF12) (from UniProt O00268 1-1085; Q16514 1-161) (complex)”, the binding entry in assay [1] is “binds”. “TAF4(805–1083)–TAF12 heterodimer (HEK cells) (from UniProt O00268 805-1083; Q16514 1-161) (complex)”: the binding entry in assay [1] is listed as “binds”.

B1: full-length TAF4 (mouse or human), expressed alone (protein, UniProt O00268 1-1085)
chain: MAAGSDLLDEVFFNSEVDEKVVSDLVGSLESQLAASAAHHHHLAPRTPEVRAAAAGALGNHVVSGSPAGAAGAGPAAPAEGAPGAAPEPPPAGRARPGGGGPQRPGPPSPRRPLVPAGPAPPAAKLRPPPEGSAGSCAPVPAAAAVAAGPEPAPAGPAKPAGPAALAARAGPGPGPGPGPGPGPGPGKPAGPGAAQTLNGSAALLNSHHAAAPAVSLVNNGPAALLPLPKPAAPGTVIQTPPFVGAAAPPAPAAPSPPAAPAPAAPAAAPPPPPPAPATLARPPGHPAGPPTAAPAVPPPAAAQNGGSAGAAPAPAPAAGGPAGVSGQPGPGAAAAAPAPGVKAESPKRVVQAAPPAAQTLAASGPASTAASMVIGPTMQGALPSPAAVPPPAPGTPTGLPKGAAGAVTQSLSRTPTATTSGIRATLTPTVLAPRLPQPPQNPTNIQNFQLPPGMVLVRSENGQLLMIPQQALAQMQAQAHAQPQTTMAPRPATPTSAPPVQISTVQAPGTPIIARQVTPTTIIKQVSQAQTTVQPSATLQRSPGVQPQLVLGGAAQTASLGTATAVQTGTPQRTVPGATTTSSAATETMENVKKCKNFLSTLIKLASSGKQSTETAANVKELVQNLLDGKIEAEDFTSRLYRELNSSPQPYLVPFLKRSLPALRQLTPDSAAFIQQSQQQPPPPTSQATTALTAVVLSSSVQRTAGKTAATVTSALQPPVLSLTQPTQVGVGKQGQPTPLVIQQPPKPGALIRPPQVTLTQTPMVALRQPHNRIMLTTPQQIQLNPLQPVPVVKPAVLPGTKALSAVSAQAAAAQKNKLKEPGGGSFRDDDDINDVASMAGVNLSEESARILATNSELVGTLTRSCKDETFLLQAPLQRRILEIGKKHGITELHPDVVSYVSHATQQRLQNLVEKISETAQQKNFSYKDDDRYEQASDVRAQLKFFEQLDQIEKQRKDEQEREILMRAAKSRSRQEDPEQLRLKQKAKEMQQQELAQMRQRDANLTALAAIGPRKKRKVDCPGPGSGAEGSGPGSVVPGSSGVGTPRQFTRQRITRVNLRDLIFCLENERETSHSLLLYKAFLK
Take B1: the binding result in assay [1] was “binds”.

B2: HNF4A ligand binding domain (LBD, 148–377) (domain or fragment, UniProt P41235 148-377)
chain: SLPSINALLQAEVLSRQITSPVSGINGDIRAKKIASIADVCESMKEQLLVLVEWAKYIPAFCELPLDDQVALLRAHAGEHLLLGATKRSMVFKDVLLLGNDYIVPRHCPELAEMSRVSIRILDELVLPFQELQIDDNEYAYLKAIIFFDPDAKGLSDPGKIKRLRSQVQVSLEDYINDRQYDSRGRFGELLLLLPTLQSITWQMIEQIQFIKLFGMAKIDNLLQEMLLGG
B2: in assay [2], the binding result is given as “binds”.

B3: full length HNF4A (bacterially expressed, untagged) (protein, UniProt P41235 1-474)
chain: T1 sequence
Consider B3, for which the binding result in assay [3] is reported as “binds”.

B4: HNF4A DBD-hinge-ligand binding domain (DBD–LBD, 55–377) (domain or fragment, UniProt P41235 55-377)
chain: GVSALCAICGDRATGKHYGASSCDGCKGFFRRSVRKNHMYSCRFSRQCVVDKDKRNQCRYCRLKKCFRAGMKKEAVQNERDRISTRRSSYEDSSLPSINALLQAEVLSRQITSPVSGINGDIRAKKIASIADVCESMKEQLLVLVEWAKYIPAFCELPLDDQVALLRAHAGEHLLLGATKRSMVFKDVLLLGNDYIVPRHCPELAEMSRVSIRILDELVLPFQELQIDDNEYAYLKAIIFFDPDAKGLSDPGKIKRLRSQVQVSLEDYINDRQYDSRGRFGELLLLLPTLQSITWQMIEQIQFIKLFGMAKIDNLLQEMLLGG
On to B4, for which the binding result in assay [2] is reported as “binds”.

B5: TAF4 (805–1083), bacterially expressed (domain or fragment, UniProt O00268 805-1083)
chain: T3 sequence 1
B5: the binding entry in assay [4] is recorded as “binds”.

B6: TAF4 (832–966), bacterially expressed (domain or fragment, UniProt O00268 832-966)
chain: T2 sequence 1
Take B6: the binding result in assay [4] is “binds”.
